The results in this text go back to paper PMC12136788.

Some of the results follow.

B1: chr15:34852525:34852627:-|3pUTR|ENSG00000021776|unk|total|mutant (ssRNA)
RNA: GGGAGUUCUACAGUCCGACGAUCCCCGCAUUUCCCAAACUUAUCCGAGCAUAAAACUUUGUUUUUGUUUUUUUUUAAUAAGACCGGCCGCUAUUUCCUCCGAACACAGUUUGGGAAACUUUUUGUUCAUUUGUUUUAAUAAGACAACAGAGGAUUGAGCAUCA
B2: chr11:58422334:58423261:-|CDS|ENSG00000172365|control|control|control (ssRNA)
RNA: GGGAGUUCUACAGUCCGACGAUCACACACUAGUGAGGUGAUUCUGGUUUUUAUGUCAAGCUUUAAUAUCUUUUUUGUUCUUCUAGUUAUCUUUAUCUCCUACUUGUUCAUAUUCAUCACCAUCUUGAAGAUGCAUUCAGCUAACAACAGAGGAUUGAGCAUCA
B3: ENSG00000107863:be:win_4751|CDS|ENSG00000107863|bound_else_gene|NA|bound_elsewhere_windowed (ssRNA)
RNA: GGGAGUUCUACAGUCCGACGAUCCCUCAGAUUAUUCCACCACAUCGUCUGCUACAUACUUGACUAGCCUGGACUCCAGUCGACUGAGCCCUGAGGUGCAAUCCGUGGCAGAGAGCAAGGGGGACGAGGCAGAUGACGAGAGAACAACAGAGGAUUGAGCAUCA
B4: chr15:60490033:60490134:-|3pUTR|ENSG00000069667|unk|total|mutant (ssRNA)
RNA: GGGAGUUCUACAGUCCGACGAUCUGCUGGAUUUGGGACAUGCUUUUCUCUUUAAAUACAUAAUAUCAUUAUAUAAAUUAUUCCCGAGUGUAUUUAAUCCGGAUAAAAUUACUUCCUCCGUAUGGAUAUUUGACAUCUACCGGGCAACAGAGGAUUGAGCAUCA
B5: chr19:35623609:35623710:+|3pUTR|ENSG00000249115|unk|total|mutant (ssRNA)
RNA: GGGAGUUCUACAGUCCGACGAUCGCCUUCCCGUUUGUACCGUUUCUUUUUUUACAUGUAAAUCAGCCAUUUGGAAUUUAUCCCCGCACAUGGAUCCAAUUUUGUCUUAUUUUACAUAUAUCCCCGCCGCACUUACUGAAAUUCCAACAGAGGAUUGAGCAUCA
B6: chr6:63788104:63788249:-|CDS|ENSG00000188107|control|control|control (ssRNA)
RNA: GGGAGUUCUACAGUCCGACGAUCUAAAUCCAUUAUCGCCCCAGGAAGACUGGUUGGUCUCAAUGUCUUCAGUCAGUUUUAUGUAGGUGGCUACAGUGAAUACACUCCAGAUCUCUUACCAAAUGGAGCAGAUUUUAAAAAUGGCAACAGAGGAUUGAGCAUCA
B7: chr5:41382290:41382405:-|CDS|ENSG00000182836|unk|FALSE|unique (ssRNA)
RNA: GGGAGUUCUACAGUCCGACGAUCGGCCAAAAAGCUCAUGCGGAAAUGGUUAGCCACUCAGACAAUGAAUUUUACUGGCCAGCUAGGAGCUGGAAUUCGUUAUUUUGAUCUUCGAAUUUCCACCAAGCCCAGAGACCCCGACAACAACAGAGGAUUGAGCAUCA
B8: ENSG00000135299:stop:overlap|stop_codon|ENSG00000135299|stop_codon|NA|stop_codon (ssRNA)
RNA: GGGAGUUCUACAGUCCGACGAUCACAUUAAAAGUUUAGAAGAGGAACUUGCCAAACUAAGGACUAGGGUGCAGAAGGAAAAUUAGCACCAAUAAAGAGGAAAUAUGAAAGGAUUCUUGAAGAUUUCCAGUUUUGCAACUGCAUCAACAGAGGAUUGAGCAUCA
B9: chr17:55392621:55394333:-|three_prime_utr|ENSG00000108960|control|control|control (ssRNA)
RNA: GGGAGUUCUACAGUCCGACGAUCACUGUGAAAGUAUAAAGGCUGUGUUCUGGAAUUUUCUGCCUCACAGCAAAUAAAUAAGGUAGUGAAUUAAUUAUUCAUUCCAUUCCACUAUCAUGAAGGACUCUGAAUAGACUUGGCCAACAACAGAGGAUUGAGCAUCA
B10: chr7:151395775:151396196:-|CDS|ENSG00000187260|control|control|control (ssRNA)
RNA: GGGAGUUCUACAGUCCGACGAUCCAGCGGCUGCUGCCACCAGACGCUGCGGGGCCACACGGGUGCAGUGCUGUGCCUAGUGCUAGACACGCCCGGCCACACGGCCUUCACAGGCAGCACCGACGCCACCAUCCGUGCCUGGGACAACAGAGGAUUGAGCAUCA
B11: chr11:36273890:36273991:-|3pUTR|ENSG00000110442|msi1|total|mutant (ssRNA)
RNA: GGGAGUUCUACAGUCCGACGAUCGGUGAAGAAGUGGGAAUAAUUGGAACUAAACAACAGUUCUAAAACUUCCAUGAUUUUUGCCGCUUCUUUUGUCCCCAAGUUGAAGCUUUUGGCCAGUACCUUCUCCCGUUUUUAAAGAUGCAACAGAGGAUUGAGCAUCA
B12: chr8:103442975:103443076:+|3pUTR|ENSG00000164934|msi1|total|mutant (ssRNA)
RNA: GGGAGUUCUACAGUCCGACGAUCGGACCCGAUUAAUUGCAAACAUUUCCGUUAUAUGUGCCGAGCUUUAUUGUUACUCCUUUCCGCUACCCUGAAAAAUGAUCCUUAAAGGUGGCCCCGUUGGUAAGACUGUUUUAUCCUUAACAACAGAGGAUUGAGCAUCA
B13: ENSG00000147256:stop:overlap|stop_codon|ENSG00000147256|stop_codon|NA|stop_codon (ssRNA)
RNA: GGGAGUUCUACAGUCCGACGAUCCAUUGCUCCGUGUGCCCCGGGAGAAGGAGGCCAAAACUGGCGUCAGCUACUUCUUUCCUUAGAUGUUUUUCCUUCUAUAAGGUGCCAGACAGGGGAAAAGGGUGGGGGUACAUCUGGGAUCAACAGAGGAUUGAGCAUCA
B14: chr5:148442723:148442824:+|3pUTR|ENSG00000145868|unk|total|mutant (ssRNA)
RNA: GGGAGUUCUACAGUCCGACGAUCUUAUGAGCUUAAAAAAAAGUGAGUUUGAGAGGGAAAUGGAAAAGUUUCCAGAGUAUUUCCCGUAAUUUAUUUCCACAUUGAAUUGUGUAUAUGCUUUAUCUUGAAUAUAAAAUAAAAGUUCAACAGAGGAUUGAGCAUCA

This test deals with MSI1 full-length (mouse, UniProt Q61474 1-362). Nature of the test: nsRBNS (natural sequence RNA bind-n-seq); RBNS binding buffer (assumed for nsRBNS): 25 mM Tris pH 7.5, 150 mM KCl, 3 mM MgCl2, 0.01% Triton X-100, 500 ug/ml BSA, 20 U/ml SUPERase-In, 4 C; UNK is unkempt and MSI1 is Musashi-1; names of the RNAs are library labels; protein concentration not given here; high values mean tight binding.
UniProt Q61474, sequence (Q61474 whole entry): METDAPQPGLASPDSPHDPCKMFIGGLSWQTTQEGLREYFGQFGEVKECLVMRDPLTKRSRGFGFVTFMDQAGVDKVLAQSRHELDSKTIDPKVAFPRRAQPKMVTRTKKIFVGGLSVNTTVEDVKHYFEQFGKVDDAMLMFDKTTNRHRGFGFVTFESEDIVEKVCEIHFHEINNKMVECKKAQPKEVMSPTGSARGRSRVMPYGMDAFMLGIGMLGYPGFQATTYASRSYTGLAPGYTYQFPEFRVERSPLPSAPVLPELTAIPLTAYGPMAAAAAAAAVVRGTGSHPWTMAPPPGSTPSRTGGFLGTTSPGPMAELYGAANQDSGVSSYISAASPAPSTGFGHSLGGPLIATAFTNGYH
Molecule B1 returned a binding signal of 0.769 enrichment R.

The molecule B2 gave a binding signal of 23.6 enrichment R.

B3 yielded a binding signal of 0.467 enrichment R.

Take B4: the binding signal came to 1.77 enrichment R.

For the molecule B5, the binding signal came to 0.817 enrichment R.

Turning to B6, the binding signal turned out to be 0.451 enrichment R.

Regarding B7, the binding signal stood at 0.308 enrichment R.

For B8, the binding signal stood at 0.349 enrichment R.

Regarding B9, the binding signal came out at 0.353 enrichment R.

Turning to B10, the binding signal worked out at 0.339 enrichment R.

For B11, the binding signal came to 0.28 enrichment R.

Take B12: the binding signal stood at 0.264 enrichment R.

Molecule B13 registered a binding signal of 0.404 enrichment R.

In turn, B14 had a binding signal of 1 enrichment R.
